# Reference: PubChem BioAssay AID686979 (National Center for Advancing Translational Sciences (NCATS), 2013)
# The campaign covered roughly 420,000 compounds. About 50,000 (12%) were called active. The inconclusive results got no clear call from the source; some entries with a clear call stand among them for comparison. Calls follow the shape of the dose curve; as a rule, active = well fitted inhibition curve with a large enough effect; inconclusive = small, poorly fitted or top-dose-only effect; inactive = flat fitted curve, though single readings scatter. Potencies of inconclusive entries are left out as doubtful fits.
# Experiment: qHTS for Inhibitors of human tyrosyl-DNA phosphodiesterase 1 (TDP1): qHTS in cells in presence of CPT; also: nearly all actives have a fitted effect of over 55% in size
# Conditions: chicken DT40 Tdp1-/-;hTDP1 cells + 20 nM CPT, ATP luminescence, 48 h; activity change, negative = growth inhibition: at 46.2 µM (top of the series)
# Method in brief: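 Chicken DT40 Tdp1-/- cells stably complemented with human TDP1 were seeded at 400 cells/well in medium containing 20 nM camptothecin, exposed to pin-transferred compounds, and grown at 37 °C for at least 48 hr. Viability was read as ATP luminescence.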
# % is scaled to controls: 0 for no effect and ±100 for the full control effect; potency is read from the fitted curve at half-maximal effect; tags tell the direction and shape of the fitted curve.
SMILES,"activity change, negative = growth inhibition",Potency
Cc1ccc(-c2ccnc(-n3ncc(C(=O)NC[C@@H]4CCCN5CCCC[C@H]45)c3C3CC3)n2)o1,inactive: 13.4%,
CN(c1ccc(C(=O)NCCSCc2ccccc2)cc1)S(=O)(=O)c1ccccc1,,"inconclusive [inhibitor, single point]"
CCc1cc(C(=O)NCCN2Cc3ccccc3OC(c3ccsc3)C2)n(C)n1 (centres undefined),,"inconclusive [inhibitor, partial curve, poor fit]"
Cc1cccc(N(C(=O)CNC(=O)c2ccco2)C(C(=O)NCC2CCCO2)c2ccccc2)c1 (centres undefined),inactive: -2.99%,
CCCSc1nc2sc3c(c2c(=O)n1-c1ccc(OC)cc1)CCN(C)C3,,"inconclusive [inhibitor, single point]"
O=S1(=O)CC(N2CCC(Cc3ccccc3)CC2)CN1CCc1ccccc1 (centres undefined),,"inconclusive [inhibitor, single point]"
CC(=O)N1c2ccc(S(=O)(=O)N3CCC(C(=O)NCc4ccc(F)cc4)CC3)cc2CC1C (centres undefined),inactive: -26.5%,
O=C(NNC(=S)NC(=O)c1ccccc1)c1ccc(O)cc1,,active: 16.4 µM
Cc1onc(-c2ccccc2Cl)c1C(=O)O/N=C(\N)c1ccccc1,,"inconclusive [inhibitor, single point]"
Cc1ccc(C(=O)Nc2ccc3c(c2)OCCO3)c(C)c1,,"inconclusive [inhibitor, single point]"
O=C(Nc1ccc(F)cc1)c1ccccc1NC(=O)C1CC=CCC1C(=O)O (centres undefined),,"inconclusive [inhibitor, single point]"
Cc1cc(NC(=O)CSc2nccn2-c2ccc(Cl)cc2)no1,,"inconclusive [inhibitor, partial curve]"
CCC(C)(C)C1CCc2c(sc(NC(=O)c3ccoc3C)c2C(N)=O)C1 (centres undefined),,"inconclusive [inhibitor, single point]"
COC(=O)C1=C(C)NC(C)=C(C(=O)OC)C1C(=O)OCc1nc2cc(C(=O)OC)ccc2c(=O)[nH]1,inactive: -14.8%,
CC(=O)O/N=C/c1c(C)c(C=O)n2ccccc12,,"inconclusive [inhibitor, single point]"
COc1ccccc1CNS(=O)(=O)c1c(C)nc2scc(C)n2c1=O,,inactive
O=C1CCCN1CCC1CCCCN1Cc1nc(COc2ccccc2)no1 (centres undefined),inactive: -8.09%,
Cc1ccc(-c2cc(C(=O)N3CCCc4ccccc43)no2)cc1,inactive: -3.87%,
Cc1cc(Nc2ccc(C)c(Cl)c2)n2nc(Cc3ccccc3)nc2n1,,"inconclusive [inhibitor, single point]"
Cc1ccc(OCC(=O)Nc2ccccc2-c2ccccc2NC(=O)COc2ccc(C)cc2)cc1,,"inconclusive [inhibitor, single point]"
COc1ccc(-c2cc(C(=O)N3CCCC(C(F)(F)F)C3)c3ccccc3n2)cc1OC (centres undefined),,"inconclusive [inhibitor, single point]"
CCOc1ccc(/C=N/OCC(=O)NCc2ccc3c(c2)OCO3)cc1OC,,"inconclusive [inhibitor, single point]"

SMILES,"activity change, negative = growth inhibition",Potency
CC(OC(=O)C1CC(=O)N(Cc2ccco2)C1)C(=O)Nc1cccc(C#N)c1 (centres undefined),inactive: -2.82%,
COc1ccccc1CNS(=O)(=O)c1c(C)[nH]c(C)c1C(=O)N1CCCCC1,inactive: -24.2%,
CCOC(=O)N1CCN(C(=O)c2ccc(-n3c(=S)[nH]c4ccccc4c3=O)cc2)CC1,,"inconclusive [inhibitor, single point]"
Cc1ccccc1C(=O)NC(=S)Nc1ccc(N2CCN(C(=O)c3ccccc3)CC2)cc1,,active: 10.3 µM
COCCN(C(=O)COC(=O)c1ccc(C)o1)c1c(N)n(Cc2ccccc2)c(=O)[nH]c1=O,inactive: -0.908%,
Cc1csc(NC(=O)c2cc3c(s2)CCCC3)n1,,"inconclusive [inhibitor, single point]"
FC(F)(F)c1cc(CN2CCCC3(CCNCC3)C2)cc(C(F)(F)F)c1,,"inconclusive [inhibitor, single point]"
CCN(C(=O)COC(=O)c1cccnc1SC)c1c(N)n(Cc2ccccc2)c(=O)[nH]c1=O,inactive: 4.78%,
COc1cc(C(C)=O)ccc1OCC(=O)Nc1ccc(C)c(S(=O)(=O)N2CCCCCC2)c1,,active: 8.2 µM
COC(=O)c1ccc(C(=O)OC)c(NC(=O)C2CC(=O)N(C3CCCC3)C2)c1 (centres undefined),inactive: -1.36%,
Cc1ccsc1C(=O)N1CCN(S(=O)(=O)c2cccc(F)c2)CC1,inactive: -8.05%,
CCN(CCNC(=O)C1CCN(c2nnc(-n3cccc3)s2)CC1)c1ccccc1,,"inconclusive [inhibitor, single point]"
CNc1oc(-c2ccccc2Cl)nc1C#N,inactive: -6.13%,
COc1cccc(-c2cnc3c(NC=O)cc(-c4cc(OC)c(OC)c(OC)c4)cn23)c1,,"inconclusive [inhibitor, single point]"
CCOc1ccc(NC(=O)c2c(Nc3ccc(OC)cc3OC)sc(C(=O)c3ccc(Cl)cc3)c2N)cc1,,active: 11.6 µM
COCCn1c(=O)[nH]c2cc(C(=O)NCc3ccccc3Cl)ccc2c1=O,,"inconclusive [inhibitor, single point]"
CCOC(=O)c1sc2nc(C)nc(N3CCN(c4ncccn4)CC3)c2c1C,,"inconclusive [inhibitor, partial curve]"
O=C(Nc1ccncc1)c1ccc(-c2ccccc2)cc1,,active: 3.26 µM
CCOc1ccc(CCNC(=O)CCc2cn(Cc3ccccc3F)c3ccccc23)cc1OCC,,"inconclusive [inhibitor, single point]"
CCOC(=O)c1cccc(NC(=O)c2cc3sccc3n2Cc2ccc(Cl)cc2)c1,,"inconclusive [inhibitor, single point]"
CC(Sc1nn(-c2ccc(Cl)cc2)c(=S)s1)C(=O)NCC1CCCO1 (centres undefined),,"inconclusive [inhibitor, single point]"
CCN(CC)S(=O)(=O)c1cccc(C(=O)NC(C(=O)NNC(=O)c2ccccc2F)C(C)C)c1 (centres undefined),,"inconclusive [inhibitor, single point]"
